Measured values from the DeepSol protein solubility set.

Assay: soluble on expression in E. coli; label from the status in PepcDB or PDB records

MSKVNKAPLSLSRLVRYMDGKDGKIAVIVGTVTDDVRIEDVPALTVTALRFTESARARIHKAGGECLTFDQLALPCPTWSENTVLLRGPKNTREAVKHFGPAPGVPHSHTKPYVRQTGKKIEIARGRRRSRGFKV
soluble on expression in E. coli: soluble
